# Results: PubChem BioAssay AID686978 (National Center for Advancing Translational Sciences (NCATS), 2013)
# Screen size: about 420,000 compounds; about 64,000 (15%) were called active. The inconclusive results got no clear call from the source; some entries with a clear call stand among them for comparison. Calls follow the shape of the dose curve; as a rule, active = well fitted inhibition curve with a large enough effect; inconclusive = small, poorly fitted or top-dose-only effect; inactive = flat fitted curve, though single readings scatter. Potencies of inconclusive entries are left out as doubtful fits.
# Assay: qHTS for Inhibitors of human tyrosyl-DNA phosphodiesterase 1 (TDP1): qHTS in cells in absence of CPT; also: nearly all actives have a fitted effect of over 55% in size
# Settings: DT40 Tdp1-/- hTDP1 cells, no CPT, ATP luminescence, 48 h; activity change, negative = growth inhibition: at 46.2 µM (top of the series) unless noted
# In short: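 Seeded 400 DT40-hTDP1 cells/well (vehicle DMSO, no 20 nM CPT); pinned compounds; ≥48 hr at 37 °C; CellTiter-Glo luminescence as viability measure.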
# % is scaled to controls: 0 for no effect and ±100 for the full control effect; potency is read from the fitted curve at half-maximal effect; tags tell the direction and shape of the fitted curve.
Compound,Potency,"activity change, negative = growth inhibition"
CCc1cc2c(=O)c(-c3nc4ccccc4n3C)c(COCC(=O)O)oc2cc1OC(=O)C(C)(C)C,inactive,
Cc1cc(C)n(C(=O)/C=C/c2cccs2)n1,"inconclusive [inhibitor, single point]",
COc1ccccc1CNc1nc(-c2ccccc2OC)nc2ccccc12,active: 20.6 µM,
CCN(CC)CCNC(=O)c1c(C)oc2ncn(C)c(=O)c12,inactive,
O=S(=O)(NC1CC2CCC1C2)c1ccc(Cl)cc1 (centres undefined),inactive,
CCOc1ccc(N=C(C)C2=C(O)c3ccccc3C2=O)cc1,"inconclusive [inhibitor, single point]",
O=C(COc1ccc(F)cc1)OCCN1CCOCC1,inactive,
CCN(CC)C(=O)c1cccc(NC(=O)CCc2nc3sc4c(c3c(=O)[nH]2)CCCC4)c1,"inconclusive [inhibitor, single point]",
COc1ccc(CNC(=O)c2cc(COc3c(F)cccc3F)on2)cc1OC,"inconclusive [inhibitor, single point]",
CN(CC(=O)Nc1ccccc1C(=O)NC1CC1)Cc1cccs1,inactive,
Cn1c(SCC(=O)N2c3ccccc3Sc3ccc(Cl)cc32)nnc1-c1ccco1,"inconclusive [inhibitor, single point]",
COc1ccccc1C1(O)C(=O)Nc2ccc(C)cc21 (centres undefined),inactive,
CN(C)c1ccc(/C=C(/NC(=O)c2ccccc2)C(=O)NCCN2CCOCC2)cc1,inactive,
CSc1nnc(NC(=O)c2ccc(S(=O)(=O)N(C)C)cc2)s1,inactive,
CCN(CC)S(=O)(=O)c1ccc(NC(=O)CSc2ncnc3ccccc23)cc1,"inconclusive [inhibitor, partial curve]",
CC(C)(C)NC(=O)c1cccc(NC(=O)Cc2cccs2)c1,inactive,
CSCC[C@H](NC(=O)[C@H](Cc1ccccc1)NC[C@@H](NC[C@@H](N)CS)C(C)C)C(=O)O,"inconclusive [inhibitor, single point]",
CC1CN(S(=O)(=O)c2ccc(C(=O)Nc3ccc(S(=O)(=O)N4CCOCC4)cc3)cc2)CC(C)O1 (centres undefined),active: 13 µM,
COc1ccccc1CNC(=O)COC(=O)c1ncc(Cl)c(Cl)c1Cl,"inconclusive [inhibitor, single point]",
CCN(CC)CCOC(=O)c1ccc(NC(=O)C2(c3ccccc3)CCCC2)cc1,"inconclusive [inhibitor, partial curve]",
CCN(c1ccccc1)c1nnc(NC(=O)Nc2ccc(Br)cc2)s1,active: 3.66 µM,
COc1ccc(S(=O)(=O)Nc2ccc(Oc3ccsc3C(=O)O)cc2)cc1,inactive,
O=C(N/N=C\c1ccc(Cl)cc1Cl)c1sccc1-n1cccc1,"inconclusive [inhibitor, single point]",
O=C(NC1CCCCCC1)c1ccc(OCC2CCCO2)cc1 (centres undefined),"inconclusive [inhibitor, partial curve]",
CSc1nc(N)nc2c1ncn2CC(=O)NCCNc1ccc([N+](=O)[O-])cn1,inactive,

Compound,Potency,"activity change, negative = growth inhibition"
CCCCc1c(C)c(C#N)c2[nH]c3ccccc3n2c1=O,active: 16.4 µM,
COC(=O)c1cc(=O)nc(NN=C2c3ccccc3-c3ccccc32)s1,"inconclusive [inhibitor, single point]",
CCN(CC(=O)Nc1cc(Cl)ccc1-n1cncn1)Cc1nc2ccccc2c(=O)[nH]1,inactive,
CC(=O)Nc1ccc(NC(=O)c2ccc(NS(=O)(=O)c3cc(C(C)(C)C)cc(C)c3C)cc2)cc1,"inconclusive [inhibitor, single point]",
Cc1ccc2nc(-c3ccc(O)cc3)oc2c1,inactive,
Cc1cccc(C)c1NC(=O)Cn1cc(C=O)c2ccccc21,active: 8.2 µM,
CCOC(=O)C1(CCOC)CCN(Cc2nc(C(C)C)cs2)CC1,active: 25.9 µM,
O=C1NC(=S)SC1=Cc1cccs1,"inconclusive [inhibitor, partial curve]",
COc1ccc(N(CC(=O)NCCSCc2ccco2)S(=O)(=O)c2ccccc2)cc1OC,"inconclusive [inhibitor, single point]",
N#Cc1nc(-c2cccs2)oc1NCCc1ccccc1,"inconclusive [inhibitor, single point]",
CC(=O)c1cc2c(cc1NC(=O)Cn1cnc3ccccc3c1=O)OCO2,inactive,
CCOc1ccc(-n2c(C)c(C(C)=O)c3cc(OC(C)=O)ccc32)cc1,"inconclusive [inhibitor, partial curve]",
CCOC(=O)Cc1csc(NC(=O)CSc2nc(=O)[nH]c3c2CCCC3)n1,"inconclusive [inhibitor, single point]",
Cc1ncc([N+](=O)[O-])n1CCO,"inconclusive [inhibitor, single point]",
Cc1ccccc1N1CC(C(=O)Nc2nnc(SCC(=O)Nc3nccs3)s2)CC1=O (centres undefined),inactive,
CC(=O)Nc1ccc(-c2nnn(CC(=O)c3ccc(F)cc3)n2)cc1Cl,inactive,
O=C(NCc1ccc(F)cc1)c1[nH]c(C(F)(F)F)nc1-c1ccccc1,"inconclusive [inhibitor, single point]",
CC1(C)Cc2nc3sc4c(SCC(=O)O)ncnc4c3cc2CO1,,inconclusive: -30.5% [inhibitor]
Cc1ccc(C(=O)CC2(O)C(=O)N(Cc3ccccc3F)c3ccccc32)cc1 (centres undefined),"inconclusive [inhibitor, single point]",
C=CC[n+]1cccc(-c2cc3ccc(C)cc3[nH]2)c1,"inconclusive [inhibitor, partial curve]",
CCOC(=O)c1c(C)c[nH]c1C,,inconclusive: -30.6% [inhibitor]
Cc1cc(C)c(C(=O)COC(=O)c2ccc(NC(=O)CC#N)cc2)cc1C,"inconclusive [inhibitor, single point]",
CCOC(=O)N1CCN(CC(=O)N2c3ccccc3Sc3ccccc32)CC1,"inconclusive [inhibitor, single point]",
O=C(CCSc1ccccc1)N1CCN(c2ccccc2)CC1,"inconclusive [inhibitor, single point]",
O=C(O)CSc1cccc[n+]1[O-],"inconclusive [inhibitor, single point]",

Compound,Potency,"activity change, negative = growth inhibition"
Cc1nc(C(C)NC(=O)c2cc(COc3ccc(F)c(F)c3)on2)cs1 (centres undefined),"inconclusive [inhibitor, single point]",
CCc1ccc(OC(C)c2nc(-c3ccc(-n4cccc4)cc3)no2)cc1 (centres undefined),"inconclusive [inhibitor, single point]",
CSc1nc2ccc(NC(=O)c3ccco3)cc2s1,"inconclusive [inhibitor, single point]",
CCN(CC)C(=O)[C@H]1CC(CC(=O)NCc2cccc(C(F)(F)F)c2)C(=O)N2CCc3c([nH]c4ccc(OC)cc34)[C@]12C (some centres undefined),active: 14.6 µM,
COc1ccc(-c2ccc(C#N)c(SCC(=O)OCc3ccccc3)n2)cc1OC,"inconclusive [inhibitor, single point]",
Cc1c(-c2ccc(F)cc2)nc(N)c(C#N)c1-c1ccco1,inactive,
COc1cc(C)ccc1OCC(=O)OCC(=O)c1[nH]c(C)c(C(C)=O)c1C,inactive,
Cc1cc(Cl)ccc1OCCCC(=O)NCCCn1ccnc1,"inconclusive [inhibitor, single point]",
CN1CCN(CC(=O)Nc2cccc(S(=O)(=O)N(C)c3ccccc3)c2)CC1,"inconclusive [inhibitor, partial curve, poor fit]",
CC(C)NC(=O)c1cc(-c2cccs2)nc2ccccc12,inactive,
CC(C)(C)NC(=O)C(CCc1ccccc1)n1c(=O)c(-c2cc3ccccc3[nH]2)nc2ccccc21 (centres undefined),active: 13 µM,
Cc1nc([N+](=O)[O-])c(Br)n1CC(=O)c1ccc2ccccc2c1,active: 20.6 µM,
CC(C)(C)NC(=O)NC(=O)COC(=O)CCC1CCCC1,"inconclusive [inhibitor, single point]",
CCOc1ccc(CCNc2ncnc3onc(-c4ccc(Cl)cc4)c23)cc1OCC,"inconclusive [inhibitor, single point]",
COc1ccc(NC(=O)CN(C)C(=O)CNC(=O)c2ccc(C)s2)cc1,inactive,
C=CCn1c(=S)[nH]c2cc(C(=O)NCCc3ccc(S(N)(=O)=O)cc3)ccc2c1=O,inactive,
O=C(NCc1ccccc1)c1onc(CSc2ccc(Cl)cc2)c1C(=O)NCc1ccccc1,"inconclusive [inhibitor, single point]",
Cc1ccc2c(c1)CCCN2C(=O)CCc1nc2ccccc2c(=O)[nH]1,"inconclusive [inhibitor, full curve, poor fit]",
CCn1c(SCc2ccccc2Cl)nc2ccccc21,"inconclusive [inhibitor, partial curve, poor fit]",
C[C@@]12C(=O)OC(=O)[C@]1(C)C1CCC2O1,inactive,
COc1ccc([C@H]2C[C@@H](n3cc(C4CC4)nn3)[C@H](O)CN2C(=O)C2CCCCC2)cc1,inactive,
Cc1cccc(-c2nc3c(c(SCC(=O)N4CCOCC4)n2)Cc2c(CO)cnc(C)c2O3)c1,active: 3.66 µM,
CCCCN(C=O)c1c(CC)nc2c(OCCOc3ccc(F)cc3)cccn12,active: 16.4 µM,
Cc1ccc(C2(C)NC(=O)N(CC(=O)NCCC3=CCCCC3)C2=O)cc1 (centres undefined),"inconclusive [inhibitor, single point]",
